According to PMC12820563:
The list shows a part of the results. The list includes weakly bound sequences.

biological target: T1, MBP-FoxP3dN (UniProt Q99JB6); assay: PD-seq (MBP pull-down with sequencing); conditions: 20 mM Tris-HCl pH 7.5, 100 mM NaCl, 1.5 mM MgCl2, 0.4 uM protein, 0.1 uM dsDNA library, 30 min, room temperature, amylose pull-down; high values mean tight binding; double strand, one strand shown
T1 sequence: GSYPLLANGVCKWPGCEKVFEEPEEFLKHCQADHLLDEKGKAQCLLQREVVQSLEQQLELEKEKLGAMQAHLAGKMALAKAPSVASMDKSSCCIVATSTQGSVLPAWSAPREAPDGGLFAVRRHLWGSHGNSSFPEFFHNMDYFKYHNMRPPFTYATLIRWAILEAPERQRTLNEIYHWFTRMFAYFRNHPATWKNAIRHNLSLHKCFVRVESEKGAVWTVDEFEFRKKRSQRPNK

| Sequence | binding signal (RPM ratio (pull-down/input)) |
| --- | --- |
| GATGATTGTTCTCCCAGCTGATGAATTACGGCGCTCGAGTAAACAAATTTTCCTAATCTTTCTGTTCAAGCGCCATCTAC | 0.387 |
| GATGATTGTTCTCCCAGCTGATGAATTGATTTTGTCGAGTAAACAAATTTTCCTAATCTTTCTGTTCAAGCGCCATCTAC | 1.84 |
| GATGATTGTTCTCCCAGCTGATGAATTAAATAGGTCGAGTAAACAAATTTTCCTAATCTTTCTGTTCAAGCGCCATCTAC | 0.382 |
| GATGATTGTTCTCCCAGCTGATGAATTTATTTTATCGAGTAAACAAATTTTCCTAATCTTTCTGTTCAAGCGCCATCTAC | 3.67 |
| GATGATTGTTCTCCCAGCTGATGAATTGTCCGTGTCGAGTAAACAAATTTTCCTAATCTTTCTGTTCAAGCGCCATCTAC | 0.367 |
| GATGATTGTTCTCCCAGCTGATGAATTAACCGTTTCGAGTAAACAAATTTTCCTAATCTTTCTGTTCAAGCGCCATCTAC | 0.413 |
| GATGATTGTTCTCCCAGCTGATGAATTGAGAAACTCGAGTAAACAAATTTTCCTAATCTTTCTGTTCAAGCGCCATCTAC | 0.558 |
| GATGATTGTTCTCCCAGCTGATGAATTTGGCCATTCGAGTAAACAAATTTTCCTAATCTTTCTGTTCAAGCGCCATCTAC | 4.06 |
| GATGATTGTTCTCCCAGCTGATGAATTTTCCAAATCGAGTAAACAAATTTTCCTAATCTTTCTGTTCAAGCGCCATCTAC | 0.241 |
| GATGATTGTTCTCCCAGCTGATGAATTAGGGGTTTCGAGTAAACAAATTTTCCTAATCTTTCTGTTCAAGCGCCATCTAC | 0.738 |
| GATGATTGTTCTCCCAGCTGATGAATTATGGCATTCGAGTAAACAAATTTTCCTAATCTTTCTGTTCAAGCGCCATCTAC | 5.55 |
| GATGATTGTTCTCCCAGCTGATGAATTGGCATTATCGAGTAAACAAATTTTCCTAATCTTTCTGTTCAAGCGCCATCTAC | 2.51 |
| GATGATTGTTCTCCCAGCTGATGAATTGGTCTAGTCGAGTAAACAAATTTTCCTAATCTTTCTGTTCAAGCGCCATCTAC | 0.279 |
| GATGATTGTTCTCCCAGCTGATGAATTGTGACAATCGAGTAAACAAATTTTCCTAATCTTTCTGTTCAAGCGCCATCTAC | 1.22 |
| GATGATTGTTCTCCCAGCTGATGAATTTGCAACCTCGAGTAAACAAATTTTCCTAATCTTTCTGTTCAAGCGCCATCTAC | 3.64 |
| GATGATTGTTCTCCCAGCTGATGAATTTATGTCATCGAGTAAACAAATTTTCCTAATCTTTCTGTTCAAGCGCCATCTAC | 2.1 |
| GATGATTGTTCTCCCAGCTGATGAATTTTTCCTCTCGAGTAAACAAATTTTCCTAATCTTTCTGTTCAAGCGCCATCTAC | 0.243 |
| GATGATTGTTCTCCCAGCTGATGAATTTGCCCGGTCGAGTAAACAAATTTTCCTAATCTTTCTGTTCAAGCGCCATCTAC | 0.304 |
| GATGATTGTTCTCCCAGCTGATGAATTCATTATATCGAGTAAACAAATTTTCCTAATCTTTCTGTTCAAGCGCCATCTAC | 0.581 |
| GATGATTGTTCTCCCAGCTGATGAATTGCATTGCTCGAGTAAACAAATTTTCCTAATCTTTCTGTTCAAGCGCCATCTAC | 2.55 |
| GATGATTGTTCTCCCAGCTGATGAATTAGTTTCCTCGAGTAAACAAATTTTCCTAATCTTTCTGTTCAAGCGCCATCTAC | 2.99 |

| Sequence | binding signal (RPM ratio (pull-down/input)) |
| --- | --- |
| GATGATTGTTCTCCCAGCTGATGAATTTCATGAATCGAGTAAACAAATTTTCCTAATCTTTCTGTTCAAGCGCCATCTAC | 0.25 |
| GATGATTGTTCTCCCAGCTGATGAATTGGCCCGCTCGAGTAAACAAATTTTCCTAATCTTTCTGTTCAAGCGCCATCTAC | 0.249 |
| GATGATTGTTCTCCCAGCTGATGAATTGTCCAGTTCGAGTAAACAAATTTTCCTAATCTTTCTGTTCAAGCGCCATCTAC | 0.241 |
| GATGATTGTTCTCCCAGCTGATGAATTGCCCAGCTCGAGTAAACAAATTTTCCTAATCTTTCTGTTCAAGCGCCATCTAC | 0.364 |
| GATGATTGTTCTCCCAGCTGATGAATTACGCATCTCGAGTAAACAAATTTTCCTAATCTTTCTGTTCAAGCGCCATCTAC | 7.33 |
| GATGATTGTTCTCCCAGCTGATGAATTTATAAGTTCGAGTAAACAAATTTTCCTAATCTTTCTGTTCAAGCGCCATCTAC | 0.627 |
| GATGATTGTTCTCCCAGCTGATGAATTTGGCCGCTCGAGTAAACAAATTTTCCTAATCTTTCTGTTCAAGCGCCATCTAC | 1.44 |
| GATGATTGTTCTCCCAGCTGATGAATTTGGTGTTTCGAGTAAACAAATTTTCCTAATCTTTCTGTTCAAGCGCCATCTAC | 3.59 |
| GATGATTGTTCTCCCAGCTGATGAATTCCCTTCGTCGAGTAAACAAATTTTCCTAATCTTTCTGTTCAAGCGCCATCTAC | 0.292 |
| GATGATTGTTCTCCCAGCTGATGAATTCGTCGTATCGAGTAAACAAATTTTCCTAATCTTTCTGTTCAAGCGCCATCTAC | 1.17 |
| GATGATTGTTCTCCCAGCTGATGAATTCAGATCCTCGAGTAAACAAATTTTCCTAATCTTTCTGTTCAAGCGCCATCTAC | 0.332 |
| GATGATTGTTCTCCCAGCTGATGAATTGCCTCCGTCGAGTAAACAAATTTTCCTAATCTTTCTGTTCAAGCGCCATCTAC | 0.847 |
| GATGATTGTTCTCCCAGCTGATGAATTGTCGCAATCGAGTAAACAAATTTTCCTAATCTTTCTGTTCAAGCGCCATCTAC | 2.93 |
| GATGATTGTTCTCCCAGCTGATGAATTTCACATATCGAGTAAACAAATTTTCCTAATCTTTCTGTTCAAGCGCCATCTAC | 0.436 |
| GATGATTGTTCTCCCAGCTGATGAATTAGAAGTATCGAGTAAACAAATTTTCCTAATCTTTCTGTTCAAGCGCCATCTAC | 0.417 |
| GATGATTGTTCTCCCAGCTGATGAATTCTAACCCTCGAGTAAACAAATTTTCCTAATCTTTCTGTTCAAGCGCCATCTAC | 0.278 |
| GATGATTGTTCTCCCAGCTGATGAATTTAGCCGGTCGAGTAAACAAATTTTCCTAATCTTTCTGTTCAAGCGCCATCTAC | 0.47 |
| GATGATTGTTCTCCCAGCTGATGAATTAAGCTTATCGAGTAAACAAATTTTCCTAATCTTTCTGTTCAAGCGCCATCTAC | 1.67 |
| GATGATTGTTCTCCCAGCTGATGAATTGTACGTTTCGAGTAAACAAATTTTCCTAATCTTTCTGTTCAAGCGCCATCTAC | 0.622 |
| GATGATTGTTCTCCCAGCTGATGAATTTTCTGCGTCGAGTAAACAAATTTTCCTAATCTTTCTGTTCAAGCGCCATCTAC | 0.461 |
| GATGATTGTTCTCCCAGCTGATGAATTTGTAAAGTCGAGTAAACAAATTTTCCTAATCTTTCTGTTCAAGCGCCATCTAC | 0.634 |

| Sequence | binding signal (RPM ratio (pull-down/input)) |
| --- | --- |
| GATGATTGTTCTCCCAGCTGATGAATTCCCGGCTTCGAGTAAACAAATTTTCCTAATCTTTCTGTTCAAGCGCCATCTAC | 0.227 |
| GATGATTGTTCTCCCAGCTGATGAATTTCTTATCTCGAGTAAACAAATTTTCCTAATCTTTCTGTTCAAGCGCCATCTAC | 0.495 |
| GATGATTGTTCTCCCAGCTGATGAATTGGCCCCGTCGAGTAAACAAATTTTCCTAATCTTTCTGTTCAAGCGCCATCTAC | 0.23 |
| GATGATTGTTCTCCCAGCTGATGAATTACGAAAGTCGAGTAAACAAATTTTCCTAATCTTTCTGTTCAAGCGCCATCTAC | 0.214 |
| GATGATTGTTCTCCCAGCTGATGAATTGCGTGTTTCGAGTAAACAAATTTTCCTAATCTTTCTGTTCAAGCGCCATCTAC | 2.21 |
| GATGATTGTTCTCCCAGCTGATGAATTGGTGAATTCGAGTAAACAAATTTTCCTAATCTTTCTGTTCAAGCGCCATCTAC | 0.867 |
| GATGATTGTTCTCCCAGCTGATGAATTTACATGTTCGAGTAAACAAATTTTCCTAATCTTTCTGTTCAAGCGCCATCTAC | 0.896 |
| GATGATTGTTCTCCCAGCTGATGAATTAACAATATCGAGTAAACAAATTTTCCTAATCTTTCTGTTCAAGCGCCATCTAC | 0.975 |
| GATGATTGTTCTCCCAGCTGATGAATTCCTAGGTTCGAGTAAACAAATTTTCCTAATCTTTCTGTTCAAGCGCCATCTAC | 0.195 |
| GATGATTGTTCTCCCAGCTGATGAATTCAGTGGCTCGAGTAAACAAATTTTCCTAATCTTTCTGTTCAAGCGCCATCTAC | 0.688 |
| GATGATTGTTCTCCCAGCTGATGAATTATGGTTTTCGAGTAAACAAATTTTCCTAATCTTTCTGTTCAAGCGCCATCTAC | 1.24 |
| GATGATTGTTCTCCCAGCTGATGAATTCATTACCTCGAGTAAACAAATTTTCCTAATCTTTCTGTTCAAGCGCCATCTAC | 0.518 |
| GATGATTGTTCTCCCAGCTGATGAATTGGAGACTTCGAGTAAACAAATTTTCCTAATCTTTCTGTTCAAGCGCCATCTAC | 0.389 |
| GATGATTGTTCTCCCAGCTGATGAATTAAAGAACTCGAGTAAACAAATTTTCCTAATCTTTCTGTTCAAGCGCCATCTAC | 0.221 |
| GATGATTGTTCTCCCAGCTGATGAATTATCTCAATCGAGTAAACAAATTTTCCTAATCTTTCTGTTCAAGCGCCATCTAC | 0.287 |
| GATGATTGTTCTCCCAGCTGATGAATTCGATTATTCGAGTAAACAAATTTTCCTAATCTTTCTGTTCAAGCGCCATCTAC | 2.64 |
| GATGATTGTTCTCCCAGCTGATGAATTACCATGCTCGAGTAAACAAATTTTCCTAATCTTTCTGTTCAAGCGCCATCTAC | 0.582 |
| GATGATTGTTCTCCCAGCTGATGAATTGCCCCTGTCGAGTAAACAAATTTTCCTAATCTTTCTGTTCAAGCGCCATCTAC | 0.431 |
| GATGATTGTTCTCCCAGCTGATGAATTTAATATTTCGAGTAAACAAATTTTCCTAATCTTTCTGTTCAAGCGCCATCTAC | 2.73 |
| GATGATTGTTCTCCCAGCTGATGAATTCTAGCTTTCGAGTAAACAAATTTTCCTAATCTTTCTGTTCAAGCGCCATCTAC | 0.968 |
| GATGATTGTTCTCCCAGCTGATGAATTGTAAGAATCGAGTAAACAAATTTTCCTAATCTTTCTGTTCAAGCGCCATCTAC | 0.258 |
